From paper PMC9911399, “Two distinct binding modes provide the RNA-binding protein RbFox with extraordinary sequence specificity”
Positions count from the first letter of the chain named. Some of the results follow.

T1: RBFOX1 RRM (Homo sapiens, UniProt Q9NWB1 109-208)
T1 sequence: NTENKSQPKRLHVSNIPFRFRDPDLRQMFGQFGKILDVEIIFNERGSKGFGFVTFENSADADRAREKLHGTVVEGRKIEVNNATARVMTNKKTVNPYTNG

B1: AUUUGUU (DNA:RNA)
RNA: GGGAGACCGGAAUUCAGAUUGUCCAUUUGUUUUAAAUCCCGUCGUAGCCACCA
DNA 1: CAATCTGAATTCCGGTCTCCC
DNA 2: TGGTGGCTACGACGGGATT
B2: UUUACCA (DNA:RNA)
RNA: B1 RNA with A25U, U28A, G29C, U30C, U31A
DNA 1: CAATCTGAATTCCGGTCTCCC
DNA 2: TGGTGGCTACGACGGGATT
B3: UUACCAC (DNA:RNA)
RNA: B1 RNA with A25U, U27A, U28C, G29C, U30A, U31C
DNA 1: CAATCTGAATTCCGGTCTCCC
DNA 2: TGGTGGCTACGACGGGATT
B4: AGCUUAC (DNA:RNA)
RNA: B1 RNA with U26G, U27C, G29U, U30A, U31C
DNA 1: CAATCTGAATTCCGGTCTCCC
DNA 2: TGGTGGCTACGACGGGATT
B5: AGAAUAA (DNA:RNA)
RNA: B1 RNA with U26G, U27A, U28A, G29U, U30A, U31A
DNA 1: CAATCTGAATTCCGGTCTCCC
DNA 2: TGGTGGCTACGACGGGATT
B6: GCCGAAU (DNA:RNA)
RNA: B1 RNA with A25G, U26C, U27C, U28G, G29A, U30A
DNA 1: CAATCTGAATTCCGGTCTCCC
DNA 2: TGGTGGCTACGACGGGATT
B7: CAGAUCA (DNA:RNA)
RNA: GGGAGACCGGAAUUCAGAUUGUCCCAGAUCAUUAAAUCCCGUCGUAGCCACCA
DNA 1: CAATCTGAATTCCGGTCTCCC
DNA 2: TGGTGGCTACGACGGGATT
B8: GAGCCAG (DNA:RNA)
RNA: B7 RNA with C25G, A28C, U29C, C30A, A31G
DNA 1: CAATCTGAATTCCGGTCTCCC
DNA 2: TGGTGGCTACGACGGGATT
B9: UGAACAG (DNA:RNA)
RNA: B7 RNA with C25U, A26G, G27A, U29C, C30A, A31G
DNA 1: CAATCTGAATTCCGGTCTCCC
DNA 2: TGGTGGCTACGACGGGATT
B10: CCGACCU (DNA:RNA)
RNA: B7 RNA with A26C, U29C, A31U
DNA 1: CAATCTGAATTCCGGTCTCCC
DNA 2: TGGTGGCTACGACGGGATT
B11: UCGAGAC (DNA:RNA)
RNA: B7 RNA with C25U, A26C, U29G, C30A, A31C
DNA 1: CAATCTGAATTCCGGTCTCCC
DNA 2: TGGTGGCTACGACGGGATT
B12: GGUAAAG (DNA:RNA)
RNA: B1 RNA with A25G, U26G, U28A, G29A, U30A, U31G
DNA 1: CAATCTGAATTCCGGTCTCCC
DNA 2: TGGTGGCTACGACGGGATT
B13: ACGUCCU (DNA:RNA)
RNA: B1 RNA with U26C, U27G, G29C, U30C
DNA 1: CAATCTGAATTCCGGTCTCCC
DNA 2: TGGTGGCTACGACGGGATT
B14: GUAAUCG (DNA:RNA)
RNA: B7 RNA with C25G, A26U, G27A, A31G
DNA 1: CAATCTGAATTCCGGTCTCCC
DNA 2: TGGTGGCTACGACGGGATT
B15: CGCACUU (DNA:RNA)
RNA: B1 RNA with A25C, U26G, U27C, U28A, G29C
DNA 1: CAATCTGAATTCCGGTCTCCC
DNA 2: TGGTGGCTACGACGGGATT
B16: GCGUCGA (DNA:RNA)
RNA: B7 RNA with C25G, A26C, A28U, U29C, C30G
DNA 1: CAATCTGAATTCCGGTCTCCC
DNA 2: TGGTGGCTACGACGGGATT
B17: AGCAUAC (DNA:RNA)
RNA: B7 RNA with C25A, A26G, G27C, C30A, A31C
DNA 1: CAATCTGAATTCCGGTCTCCC
DNA 2: TGGTGGCTACGACGGGATT
B18: GCGAGCA (DNA:RNA)
RNA: B7 RNA with C25G, A26C, U29G
DNA 1: CAATCTGAATTCCGGTCTCCC
DNA 2: TGGTGGCTACGACGGGATT
B19: CUAUCGC (DNA:RNA)
RNA: B1 RNA with A25C, U27A, G29C, U30G, U31C
DNA 1: CAATCTGAATTCCGGTCTCCC
DNA 2: TGGTGGCTACGACGGGATT
B20: CGACAGU (DNA:RNA)
RNA: B1 RNA with A25C, U26G, U27A, U28C, G29A, U30G
DNA 1: CAATCTGAATTCCGGTCTCCC
DNA 2: TGGTGGCTACGACGGGATT
B21: GCGAGUA (DNA:RNA)
RNA: B7 RNA with C25G, A26C, U29G, C30U
DNA 1: CAATCTGAATTCCGGTCTCCC
DNA 2: TGGTGGCTACGACGGGATT
B22: GACUUUC (DNA:RNA)
RNA: B1 RNA with A25G, U26A, U27C, G29U, U31C
DNA 1: CAATCTGAATTCCGGTCTCCC
DNA 2: TGGTGGCTACGACGGGATT
B23: CUCCCAG (DNA:RNA)
RNA: B1 RNA with A25C, U27C, U28C, G29C, U30A, U31G
DNA 1: CAATCTGAATTCCGGTCTCCC
DNA 2: TGGTGGCTACGACGGGATT
B24: UGGCAGG (DNA:RNA)
RNA: B7 RNA with C25U, A26G, A28C, U29A, C30G, A31G
DNA 1: CAATCTGAATTCCGGTCTCCC
DNA 2: TGGTGGCTACGACGGGATT
B25: GAGCAGU (DNA:RNA)
RNA: B7 RNA with C25G, A28C, U29A, C30G, A31U
DNA 1: CAATCTGAATTCCGGTCTCCC
DNA 2: TGGTGGCTACGACGGGATT
B26: UUCCUCG (DNA:RNA)
RNA: B7 RNA with C25U, A26U, G27C, A28C, A31G
DNA 1: CAATCTGAATTCCGGTCTCCC
DNA 2: TGGTGGCTACGACGGGATT
B27: UGGUAUG (DNA:RNA)
RNA: B1 RNA with A25U, U26G, U27G, G29A, U31G
DNA 1: CAATCTGAATTCCGGTCTCCC
DNA 2: TGGTGGCTACGACGGGATT
B28: GUGUAGG (DNA:RNA)
RNA: B1 RNA with A25G, U27G, G29A, U30G, U31G
DNA 1: CAATCTGAATTCCGGTCTCCC
DNA 2: TGGTGGCTACGACGGGATT
B29: AUGAUAG (DNA:RNA)
RNA: B7 RNA with C25A, A26U, C30A, A31G
DNA 1: CAATCTGAATTCCGGTCTCCC
DNA 2: TGGTGGCTACGACGGGATT
B30: UAGAUCG (DNA:RNA)
RNA: B7 RNA with C25U, A31G
DNA 1: CAATCTGAATTCCGGTCTCCC
DNA 2: TGGTGGCTACGACGGGATT
B31: GUGUCCC (DNA:RNA)
RNA: B1 RNA with A25G, U27G, G29C, U30C, U31C
DNA 1: CAATCTGAATTCCGGTCTCCC
DNA 2: TGGTGGCTACGACGGGATT

Target: T1, RBFOX1 RRM
Assay: EMSA; HiTS-Eq, 1 nM pool, 10 min; buffer printed only for the single-RNA assays: 10 mM Tris pH 7.5, 150 mM NaCl, 3.4 mM EDTA, 0.001% NP-40, 30 C
Settings: tags: His6 N-terminal (pET28a); label: 5' 32P
Method in brief: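 Purified RbFox RRM, wild type or mutant, was incubated for 10 min in 50 µL with 1 nM of a 5′-radiolabelled RNA pool carrying 7 randomized nucleotides, whose flanks were annealed to DNA oligonucleotides, over a series of increasing protein concentrations. Unbound RNA was resolved on 8% native PAGE, cut out, reverse-transcribed, barcoded by PCR and sequenced on an Illumina HiSeq 2500. Relative association constants were derived from changes in read counts for each RNA species versus the control reaction and normalised to the cognate motif.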

Binder | binding signal
B1 | 0.0145 KA relative to UGCAUGU
B2 | 0.00361 KA relative to UGCAUGU
B3 | 0.0022 KA relative to UGCAUGU
B4 | 0.00674 KA relative to UGCAUGU
B5 | 0.000945 KA relative to UGCAUGU
B6 | 0.0115 KA relative to UGCAUGU
B7 | 0.00299 KA relative to UGCAUGU
B8 | 0.0103 KA relative to UGCAUGU
B9 | 0.0126 KA relative to UGCAUGU
B10 | 0.00445 KA relative to UGCAUGU
B11 | 0.00506 KA relative to UGCAUGU
B12 | 0.00714 KA relative to UGCAUGU
B13 | 0.00298 KA relative to UGCAUGU
B14 | 0.00865 KA relative to UGCAUGU
B15 | 0.005 KA relative to UGCAUGU
B16 | 0.0181 KA relative to UGCAUGU

Binder | binding signal
B17 | 0.0047 KA relative to UGCAUGU
B18 | 0.0218 KA relative to UGCAUGU
B19 | 0.00743 KA relative to UGCAUGU
B20 | 0.00911 KA relative to UGCAUGU
B21 | 0.0128 KA relative to UGCAUGU
B22 | 0.0111 KA relative to UGCAUGU
B23 | 0.00251 KA relative to UGCAUGU
B24 | 0.0211 KA relative to UGCAUGU
B25 | 0.0139 KA relative to UGCAUGU
B26 | 0.0136 KA relative to UGCAUGU
B27 | 0.0243 KA relative to UGCAUGU
B28 | 0.00962 KA relative to UGCAUGU
B29 | 0.0111 KA relative to UGCAUGU
B30 | 0.0168 KA relative to UGCAUGU
B31 | 0.0147 KA relative to UGCAUGU
